{"source": "paper PMC4336329", "about": "(PLoS ONE, 2015)", "note": "Among all 310,000 compounds or so, about 2,200 (0.71%) showed an effect of 50% or more. Effects have a minus sign here. This is one part of the list.", "data": [{"target": "human ether-à-go-go-related gene (hERG) potassium channel (human, UniProt Q12809)", "sequence (Q12809 whole entry, looked up)": "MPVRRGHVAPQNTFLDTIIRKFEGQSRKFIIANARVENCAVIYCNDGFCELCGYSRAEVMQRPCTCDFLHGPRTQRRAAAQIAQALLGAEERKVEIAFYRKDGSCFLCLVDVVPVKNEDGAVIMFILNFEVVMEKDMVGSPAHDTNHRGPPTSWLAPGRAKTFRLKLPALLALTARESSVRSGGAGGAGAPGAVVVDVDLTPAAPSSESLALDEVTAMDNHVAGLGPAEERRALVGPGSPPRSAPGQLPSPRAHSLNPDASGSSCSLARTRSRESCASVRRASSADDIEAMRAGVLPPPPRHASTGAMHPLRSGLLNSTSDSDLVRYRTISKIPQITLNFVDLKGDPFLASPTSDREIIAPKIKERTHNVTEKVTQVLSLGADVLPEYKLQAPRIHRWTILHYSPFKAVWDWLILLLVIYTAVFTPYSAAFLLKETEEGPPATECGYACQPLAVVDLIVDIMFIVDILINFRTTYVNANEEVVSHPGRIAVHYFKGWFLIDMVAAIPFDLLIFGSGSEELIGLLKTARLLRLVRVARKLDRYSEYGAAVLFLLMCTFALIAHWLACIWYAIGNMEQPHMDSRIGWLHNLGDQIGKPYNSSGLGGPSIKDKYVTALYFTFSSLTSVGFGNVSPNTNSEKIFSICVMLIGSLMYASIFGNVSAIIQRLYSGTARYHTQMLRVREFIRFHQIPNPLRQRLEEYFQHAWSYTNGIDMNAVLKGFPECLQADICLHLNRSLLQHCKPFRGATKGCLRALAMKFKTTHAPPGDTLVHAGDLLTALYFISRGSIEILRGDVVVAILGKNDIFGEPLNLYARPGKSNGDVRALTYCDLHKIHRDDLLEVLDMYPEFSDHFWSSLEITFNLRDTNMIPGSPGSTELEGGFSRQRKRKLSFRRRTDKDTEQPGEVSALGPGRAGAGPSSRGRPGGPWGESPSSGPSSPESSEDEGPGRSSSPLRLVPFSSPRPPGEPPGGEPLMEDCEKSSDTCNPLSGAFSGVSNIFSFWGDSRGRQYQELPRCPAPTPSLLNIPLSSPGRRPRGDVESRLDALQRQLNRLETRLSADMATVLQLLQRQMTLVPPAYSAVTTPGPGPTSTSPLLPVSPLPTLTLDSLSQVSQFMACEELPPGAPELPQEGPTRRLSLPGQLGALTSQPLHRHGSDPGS", "experiment": "primary screen, population patch clamp on CHO cells stably expressing hERG", "units": {"hERG current change (%, negative = inhibition) at 1uM": "%"}, "values": [{"smiles": "O=C(NC(Cc1ccccc1)C(=O)O)/C(=C/c1ccc(Cl)cc1)NC(=O)c1ccccc1", "note": "(stereo not drawn)", "hERG current change (%, negative = inhibition) at 1uM": 13.4}, {"smiles": "Cc1cccc(-c2nnn3c2nc(NCCc2ccc(S(N)(=O)=O)cc2)c2ccccc23)c1", "hERG current change (%, negative = inhibition) at 1uM": 21.3}, {"smiles": "O=C(O)CC(NC(=O)OCc1ccccc1)c1ccc(Br)cc1", "note": "(stereo not drawn)", "hERG current change (%, negative = inhibition) at 1uM": 18}, {"smiles": "COc1ccccc1C(=O)CC(=O)c1ccccc1", "hERG current change (%, negative = inhibition) at 1uM": 17.4}, {"smiles": "O=S1(=O)C=C(SCc2ccc(Cl)c(Cl)c2)Nc2ccccc21", "hERG current change (%, negative = inhibition) at 1uM": -15.1}, {"smiles": "COc1ccc(CC(C)CC(=O)Nc2ccc(OC)cc2)cc1", "note": "(stereo not drawn)", "hERG current change (%, negative = inhibition) at 1uM": 11.1}, {"smiles": "COc1ccc(-c2[nH]c(-c3ccc(C(=O)O)cc3)nc2-c2ccccc2)cc1", "hERG current change (%, negative = inhibition) at 1uM": 5.67}, {"smiles": "O=C(NCC(c1cccs1)N1CCOCC1)c1cc(S(=O)(=O)N2CCOCC2)ccc1F", "note": "(stereo not drawn)", "hERG current change (%, negative = inhibition) at 1uM": -12.4}, {"smiles": "C/C=C/c1cc(OC)c2c(c1)[C@H](C)[C@@H](c1ccc(O)c(OC)c1)O2", "hERG current change (%, negative = inhibition) at 1uM": 15.8}, {"smiles": "COc1ccc(N2CCN(c3ncnc4nc[nH]c34)CC2)cc1", "hERG current change (%, negative = inhibition) at 1uM": 14.8}, {"smiles": "CCN1CCCC1CNC(=O)CSc1cc(=O)n(CC)c2ccccc12", "note": "(stereo not drawn)", "hERG current change (%, negative = inhibition) at 1uM": 7.45}, {"smiles": "Cc1ccc2nc(N3CCN(C(=O)c4ccco4)CC3)sc2c1", "hERG current change (%, negative = inhibition) at 1uM": -7.42}, {"smiles": "CC(C)(CNC(=O)c1cccs1)N1CCOCC1", "hERG current change (%, negative = inhibition) at 1uM": 3.97}, {"smiles": "CC1CCN(S(=O)(=O)c2ccc3c(c2)N(CC(=O)NCCCN2C(C)CCCC2C)C(=O)CO3)CC1", "note": "(stereo not drawn)", "hERG current change (%, negative = inhibition) at 1uM": 6.07}, {"smiles": "CCCCC(=O)N(Cc1ccc(F)cc1)C1CCS(=O)(=O)C1", "note": "(stereo not drawn)", "hERG current change (%, negative = inhibition) at 1uM": 5.63}, {"smiles": "COC(=O)c1ccccc1COn1c(=O)c(C)[n+]([O-])c2ccccc21", "hERG current change (%, negative = inhibition) at 1uM": 11.8}, {"smiles": "CCOC(=O)C1(CCOc2ccccc2)CCN(Cc2ccccc2OC)CC1", "hERG current change (%, negative = inhibition) at 1uM": -37.2}, {"smiles": "CN(CCCC(=O)NCCc1ccccc1)S(=O)(=O)c1ccc([N+](=O)[O-])cc1", "hERG current change (%, negative = inhibition) at 1uM": -5.92}, {"smiles": "CC(C(=O)Nc1ccc2c(c1)OCCO2)c1ccc([N+](=O)[O-])cc1", "note": "(stereo not drawn)", "hERG current change (%, negative = inhibition) at 1uM": -0.0809}, {"smiles": "CCc1ccc(N2C(=O)CC(N3CCN(c4ccccn4)CC3)C2=O)cc1", "note": "(stereo not drawn)", "hERG current change (%, negative = inhibition) at 1uM": 9.83}, {"smiles": "CCOc1cc(C(=O)Nc2cnccn2)cc(OCC)c1OCC", "hERG current change (%, negative = inhibition) at 1uM": -1.34}, {"smiles": "S=c1[nH]nc(COc2ccccc2)n1/N=C/c1cccs1", "hERG current change (%, negative = inhibition) at 1uM": 5.49}, {"smiles": "COc1ccc(Cl)cc1N/C(N)=N/c1nc(C)cc(=O)[nH]1", "hERG current change (%, negative = inhibition) at 1uM": 12.3}, {"smiles": "CCNC(=S)N(CCc1c(C)[nH]c2ccc(OC)cc12)Cc1cccnc1", "hERG current change (%, negative = inhibition) at 1uM": 9.2}, {"smiles": "Cc1ccc(S(=O)(=O)N(C)CC(=O)Nc2cc(C)ccn2)cc1", "hERG current change (%, negative = inhibition) at 1uM": 5.22}, {"smiles": "O=C(/C=C\\NCC(=O)c1ccccc1)c1ccc(F)cc1", "hERG current change (%, negative = inhibition) at 1uM": -2.16}, {"smiles": "Cc1cc(=O)oc2cc(NC(=O)C3CCCC3)ccc12", "hERG current change (%, negative = inhibition) at 1uM": 10.5}, {"smiles": "Cc1ccc2nc(NC(=O)CSc3nc4ccccc4o3)sc2c1", "hERG current change (%, negative = inhibition) at 1uM": 11.5}, {"smiles": "Cl.OC(CN1CCN(c2cccc(Cl)c2)CC1)C(c1ccccc1)c1ccccc1", "note": "(stereo not drawn)", "hERG current change (%, negative = inhibition) at 1uM": 4.57}, {"smiles": "CCCCOC(=O)Cn1c(=O)c2c(nc3n2CCCCN3c2ccc(C)cc2)n(C)c1=O", "hERG current change (%, negative = inhibition) at 1uM": -16.3}, {"smiles": "Cc1ccc(NC(=O)Cc2nnc(SCC(=O)NC3CCCC3)n2C)cc1C", "hERG current change (%, negative = inhibition) at 1uM": 1.75}, {"smiles": "CCC(C)C(=O)Nc1nc2ccc(S(C)(=O)=O)cc2s1", "note": "(stereo not drawn)", "hERG current change (%, negative = inhibition) at 1uM": 9.31}, {"smiles": "Cc1ccc(S(=O)(=O)NCc2cc(=O)n(C)c(=O)n2C)cc1C", "hERG current change (%, negative = inhibition) at 1uM": 9.96}, {"smiles": "CCO[C@@H]1OC(C(=O)N2CCN(Cc3ccccc3)CC2)=C[C@H](C)[C@H]1CCCO", "hERG current change (%, negative = inhibition) at 1uM": 11.1}, {"smiles": "Cc1sc2ncnc(Sc3nnnn3-c3ccc(Cl)cc3)c2c1C", "hERG current change (%, negative = inhibition) at 1uM": 9.98}, {"smiles": "COc1ccc(N2CCN(C(=O)C(=O)c3c(C)n(C)c4ccccc34)CC2)cc1", "hERG current change (%, negative = inhibition) at 1uM": 10.7}, {"smiles": "COc1ccc(C(=O)Nc2ccccc2C(=O)N2CCCCC2C)cc1", "note": "(stereo not drawn)", "hERG current change (%, negative = inhibition) at 1uM": 5.39}, {"smiles": "CCN(CC(=O)Nc1ccccc1C(F)(F)F)C(=O)c1cc(-c2cccs2)nn1-c1ccccc1", "hERG current change (%, negative = inhibition) at 1uM": 0.102}, {"smiles": "CNC(=O)C1CCN(S(=O)(=O)c2c(C)noc2/C=C/c2cccc(OC)c2)CC1", "hERG current change (%, negative = inhibition) at 1uM": 9.04}, {"smiles": "CCC(CO)(CO)N(CC(=O)Nc1ccc(OC)cc1)CC(=O)Nc1ccc(OC)cc1", "hERG current change (%, negative = inhibition) at 1uM": 14.4}, {"smiles": "CNc1c(NS(=O)(=O)c2cc(OC)ccc2OC)c(=O)oc2ccccc12", "hERG current change (%, negative = inhibition) at 1uM": 12.5}, {"smiles": "CC(CC1C(C#N)=C(N)SC(N)=C1C#N)c1ccccc1", "note": "(stereo not drawn)", "hERG current change (%, negative = inhibition) at 1uM": -2.17}, {"smiles": "CCC1(CCCC(=O)c2ccc(F)cc2)C(=O)NC(=S)NC1=O", "hERG current change (%, negative = inhibition) at 1uM": 4.85}, {"smiles": "CCOC(=O)CNC(=O)N1CCC(CCC(=O)N(C)Cc2ccccc2)CC1", "hERG current change (%, negative = inhibition) at 1uM": 12}, {"smiles": "Cc1ncc(CO)c2cc(C(=O)Nc3cccc(F)c3)c(=Nc3cccc(C(N)=O)c3)oc12", "hERG current change (%, negative = inhibition) at 1uM": 12.1}]}]}
